From PubChem BioAssay AID411 (National Center for Advancing Translational Sciences (NCATS), 2006)
About 1,600 (2.2%) of roughly 72,000 compounds were called active. The inconclusive results got no clear call from the source; some entries with a clear call stand among them for comparison. The call rests on the fitted dose curve; in most records, active means well fitted inhibition curve with a large enough effect; inconclusive means small, poorly fitted or top-dose-only effect; inactive means flat fitted curve, though single readings scatter. Potencies of inconclusive entries are left out as doubtful fits.

biological target: Luciferin 4-monooxygenase (Photinus pyralis) (UniProt P08659); experiment: qHTS Assay for Inhibitors of Firefly Luciferase; details: purified firefly luciferase, luminescence, 8 min; series mostly up to 57.1 µM; further: nearly all actives have a fitted effect of over 40% in size
Outline: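 Compounds were tested as concentration series (qHTS) against purified P. pyralis luciferase with luciferin and 10 uM ATP in 50 mM imidazole pH 7.2, 50 mM KCl, 7 mM MgCl2, 0.01% Tween 20, 0.05% BSA. Luminescence was read after 8 min at ambient temperature.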
On the % scale 0 is the no-effect control and ±100 the full control effect; potency means the concentration at half of the fitted maximal effect; tags describe the fitted curve by direction and shape.

Sequence of UniProt P08659 (P08659 whole entry, looked up): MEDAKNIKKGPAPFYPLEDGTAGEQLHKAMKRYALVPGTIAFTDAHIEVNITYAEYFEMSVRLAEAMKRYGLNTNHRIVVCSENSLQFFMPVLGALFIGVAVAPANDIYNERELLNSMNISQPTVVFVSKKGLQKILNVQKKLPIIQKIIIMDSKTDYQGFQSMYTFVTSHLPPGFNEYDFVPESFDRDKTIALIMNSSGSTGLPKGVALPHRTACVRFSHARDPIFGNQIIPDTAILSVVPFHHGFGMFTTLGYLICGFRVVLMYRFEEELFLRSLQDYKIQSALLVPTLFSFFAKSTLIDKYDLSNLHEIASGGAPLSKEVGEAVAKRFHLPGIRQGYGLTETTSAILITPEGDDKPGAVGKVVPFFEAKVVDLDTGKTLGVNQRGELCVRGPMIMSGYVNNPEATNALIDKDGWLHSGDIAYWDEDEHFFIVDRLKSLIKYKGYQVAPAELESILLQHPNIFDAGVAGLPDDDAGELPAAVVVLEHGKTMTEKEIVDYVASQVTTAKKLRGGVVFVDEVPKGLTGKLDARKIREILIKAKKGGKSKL

| SMILES | Potency | activity change, negative = inhibition |
| --- | --- | --- |
| O=C(CSc1nc2ccccc2[nH]1)c1cccs1 | inconclusive [inhibitor, single point] | – |
| CCOC(=O)c1ccc(NC(=O)c2nn(C)cc2Br)cc1 | inconclusive [inhibitor, full curve, poor fit] | – |
| O=C(O)c1cccc(NS(=O)(=O)c2ccc(Cl)c(C(=O)O)c2)c1 | inactive | – |
| CCc1c(C)c2ccc(OCC(=O)OC)cc2oc1=O | inconclusive [inhibitor, single point] | – |
| CCOc1ccc2nc(NC(=O)c3ccoc3C)sc2c1 | active: 1.58 µM | – |
| CCOC(=O)c1cccc(NC(=O)CSc2nnnn2CC)c1 | inconclusive [inhibitor, partial curve] | – |
| O=S(=O)(C[C@H](O)C(Cl)(Cl)Cl)NNc1ccccc1 | – | inactive: 5.93% [at 11.4 µM] |
| CC1(C)NC(=O)N(CC(O)COc2ccc(-c3ccc(C#N)cc3)cc2)C1=O (stereo not drawn) | inactive | – |
| Cc1cccc(C)c1NC(=O)CSc1nnc(-c2ccoc2C)n1C | inactive | – |
| Nc1sc2c(c1C(=O)NC1CCS(=O)(=O)C1)CCCC2 (stereo not drawn) | inconclusive [inhibitor, partial curve] | – |
| CCOC(=O)N1CCN(c2cc(NCCC(=O)O)c3c4c(onc24)-c2ccccc2C3=O)CC1 | inconclusive [inhibitor, partial curve] | – |
| COc1cccc(NC(=O)c2ccc(CN3CCOCC3)cc2)c1 | inconclusive [inhibitor, single point] | – |
| O=C(O)C1CC(c2ccccc2F)=NO1 (stereo not drawn) | inactive | – |
| O=C(c1cnccn1)N1CCC2(CCCN(Cc3ccncc3)C2)CC1 | – | inactive: -0.523% [at 11.4 µM] |
| COc1ccc(C=Nc2c(O)ccc3ccccc23)cc1OC | inconclusive [inhibitor, single point] | – |
| Cn1c(CNc2nc(-c3ccccc3)cs2)nnc1SCC(=O)c1ccccc1 | inconclusive [inhibitor, full curve] | – |
| CCOc1ccc(-c2cc(CCCC(=O)NCc3ccco3)no2)cc1 | inconclusive [inhibitor, partial curve] | – |
| Cc1ccc(NC(=O)NCCN2C(=O)C3C4C=CC(C4)C3C2=O)cc1 (stereo not drawn) | inconclusive [inhibitor, partial curve] | – |
| Cc1cc2nc(-c3ccc(SCC(=O)N4CCOCC4)nc3)[nH]c2cc1C | active: 2.51 µM | – |
| CCn1nc(C(=O)OCC(=O)c2ccc3c(c2)OCCO3)c2ccccc2c1=O | active: 12.6 µM | – |
| CCC(=O)Nc1cnc(NC(=O)c2cccc(F)c2)cc1C | inconclusive [inhibitor, single point] | – |
| COc1ccc2oc(C(=O)c3ccccc3)c(NC(=O)CN3CCN(C)CC3)c2c1 | inactive | – |
| COc1ccc(CNc2nc(-c3cccc(NS(C)(=O)=O)c3)nc3ccccc23)c(OC)c1 | – | inactive: -6.12% [at 2.29 µM] |
| CCNc1nnc(-c2ccc(C)cc2)o1 | inconclusive [inhibitor, single point] | – |
| N.N.N.N.N.N.N.N.N.N.N.N.N.N.O.O.[Ru].[Ru].[Ru] | inconclusive [inhibitor, single point] | – |

| SMILES | Potency | activity change, negative = inhibition |
| --- | --- | --- |
| COc1cccc(NC=C2C(=O)OC(C)(C)OC2=O)c1 | inconclusive [inhibitor, partial curve] | – |
| O=c1/c(=C\c2ccc3c(c2)OCO3)sc2n1CCCN=2 | active: 12.6 µM | – |
| COc1ccc(OCC(=O)Nc2cccc(NC(=O)COc3ccc(OC)cc3)n2)cc1 | inconclusive [inhibitor, full curve, poor fit] | – |
| O=c1c(-c2ccc3c(c2)OCCO3)coc2cc(O)cc(O)c12 | inconclusive [inhibitor, single point] | – |
| CN(C)C(=O)c1ccc(-c2ccc3ncnc(NCCN4CCOCC4)c3c2)cc1 | – | inactive: -1.6% [at 2.29 µM] |
| O=C(CC(Nc1ccc(F)cc1)C(=O)O)c1ccccc1 (stereo not drawn) | active: 7.94 µM | – |
| COc1ccc(C(=O)Nc2cc(C)on2)cc1 | active: 10 µM | – |
| Cc1[nH]c2c(C)ccc(C)c2c1CC(=O)O | – | inactive: -0.435% [at 11.4 µM] |
| CC(C)CC(=O)Nc1ccc2oc(-c3ccncc3)nc2c1 | inconclusive [inhibitor, partial curve] | – |
| c1ccc(-c2noc(C3CCCCC3)n2)nc1 | inconclusive [inhibitor, single point] | – |
| COc1cccc(NC(=O)Nc2nnc(N3CCCCC3C)s2)c1 (stereo not drawn) | inconclusive [inhibitor, partial curve] | – |
| Cc1nnc(Nc2ccc3c(c2)OCO3)c2ccccc12 | inconclusive [inhibitor, partial curve] | – |
| Nc1ccccc1SCc1cn2ccccc2n1 | inconclusive [inhibitor, single point] | – |
| CCC(=O)NC(=Nc1nc2ccccc2s1)NC(=O)CC | inconclusive [inhibitor, single point] | – |
| CCCCOc1ccc(-c2nc(-c3cccnc3)no2)cc1 | inconclusive [inhibitor, single point] | – |
| Cc1cc2nc(-c3cccc(NC(=O)c4ccc(Br)o4)c3C)oc2cc1C | active: 7.94 µM | – |
| O=C(Nc1ccc(N2CCOCC2)c(Cl)c1)c1ccc(Br)o1 | inconclusive [inhibitor, partial curve] | – |
| COc1ccc(-c2cn3c(n2)CCC3)cc1 | active: 15.8 µM | – |
| CCc1ccccc1NC(=O)c1cnc2scc(C)n2c1=O | inactive | – |
| O=c1cc(-c2ccccc2)[nH]c2nc3ccccc3n12 | active: 2.51 µM | – |
| COc1cc(NC(=O)c2ccc3c(c2)OCO3)ccc1NC(=O)C(C)C | inconclusive [inhibitor, single point] | – |
| CCN(CC)c1nc2ccccc2n2cnnc12 | inconclusive [inhibitor, full curve] | – |
| CCOC(=O)N1CCN(C(=O)C2CCCN(c3nc4ccc(OCC)cc4s3)C2)CC1 (stereo not drawn) | inconclusive [inhibitor, single point] | – |
| COc1ccc(NC(=O)c2oc3ccccc3c2NC(=O)c2ccco2)cc1 | inconclusive [inhibitor, partial curve] | – |
| c1ccc(-c2noc(-c3cccnc3)n2)nc1 | inconclusive [inhibitor, single point] | – |

| SMILES | Potency | activity change, negative = inhibition |
| --- | --- | --- |
| Cc1ccc2c(COC(=O)C3=COCCO3)cc(=O)oc2c1 | inconclusive [inhibitor, full curve, poor fit] | – |
| Cc1cc(NC(=O)c2cc(-c3cccnc3)nc3c(C)c(C)ccc23)no1 | inactive | – |
| CN(C)c1ccc(C=Nc2ccccc2C(N)=O)cc1 | inconclusive [inhibitor, single point] | – |
| CN(C)c1ccc(-c2cncnc2NCc2cccnc2)cc1 | – | inactive: 1.58% [at 2.29 µM] |
| CCOc1ccc(C(=O)N2CCc3cc(OC)c(OC)cc3C2)cc1OCC | inconclusive [inhibitor, partial curve] | – |
| COCn1c(COc2ccccc2)nc2ccccc21 | inconclusive [inhibitor, partial curve] | – |
| O=C(c1ccc(Cl)cc1)N1CCCCC(Sc2nnc(-c3ccc4c(c3)OCO4)o2)C1=O (stereo not drawn) | active: 12.6 µM | – |
| C[C@@H]1CC[C@H]2C(=O)N3[C@@H](CC[C@@H](C)[C@@H]3c3ccc(Br)cc3)C(=O)N2[C@@H]1c1ccc(Br)cc1 | – | inactive: -0.215% [at 11.4 µM] |
| O=[N+]([O-])c1ccccc1N=Nc1c(O)[nH]c2ccc(S(=O)(=O)O)cc12 | inconclusive [inhibitor, single point] | – |
| Nc1nc2ccc(C(=O)Nc3ccccc3)cc2s1 | inconclusive [inhibitor, single point] | – |
| COc1ccccc1N1CCN(C(=O)CSc2nc(-c3ccccc3)cc(=O)[nH]2)CC1 | inactive | – |
| Cc1cc(NC(=O)NC(=O)c2ccc(F)cc2F)n[nH]1 | active: 15.8 µM | – |
| Nn1c(-c2cccs2)nc2sc3c(c2c1=O)CCCC3 | active: 15.8 µM | – |
| CCCCOc1ccc(-c2nnc(-c3ccco3)o2)cc1 | inconclusive [inhibitor, single point] | – |
| CN1/C(=C/C(=O)C2CCC2)Sc2ccccc21 | inconclusive [inhibitor, single point] | – |
| CCN1C(=O)CC(N2CCN(c3ccc(C(=O)c4ccccc4)cc3)CC2)C1=O (stereo not drawn) | inconclusive [inhibitor, partial curve] | – |
| CCN1C(=O)c2ccc(C(=O)Nc3nccs3)cc2C1=O | inconclusive [inhibitor, partial curve] | – |
| CCOC(=O)C1CCCN(C(=O)CCC(=O)Nc2ccc3nc(N4CCOCC4)cc(C)c3c2)C1 (stereo not drawn) | inconclusive [inhibitor, single point] | – |
| CCOC(=O)Cc1csc(NC(=O)CSc2nnc(-c3ccc(C)cc3)o2)n1 | inactive | – |
| COCCOC(=O)c1[nH]c2c(c1C)C(=O)C(C(=O)OC)C(C)C2 (stereo not drawn) | active: 10 µM | – |
| c1coc(C2Nc3ccccc3-c3nc4ccccc4n32)c1 (stereo not drawn) | inconclusive [inhibitor, single point] | – |
| c1ccc(N2CCN(c3nc4cc5c(cc4s3)OCO5)CC2)cc1 | inconclusive [inhibitor, full curve, poor fit] | – |
| Cc1nc2ccc(Cl)cc2nc(C)/c1=N\O | inconclusive [inhibitor, full curve, poor fit] | – |
